Tests used:
Sprague-Dawley rats [1] = test: Conditioned place preference; details: 10 mg/kg IV
Sprague-Dawley rats [2] = test: Prepulse inhibition (sensory-motor gating); details: ketamine 10 mg/kg IP; GLYX-13 10 mg/kg IV

Compound: CNC1(c2ccccc2Cl)CCCCC1=O (centres unmarked) [Ketamine, ketamine]
- conditioned place preference as measured by % time in drug paired chamber (Sprague-Dawley rats [1]): induced conditioned place preference
- sensory-motor gating as measured by prepulse inhibition (Sprague-Dawley rats [2]): decreased sensory-motor gating

— patent US20150253305A1, “METHODS OF IDENTIFYING COMPOUNDS FOR TREATING DEPRESSION AND OTHER RELATED DISEASES” (NORTHWESTERN UNIVERSITY, priority 2012, published 2015)
